# Data from the supplement of paper PMC8728848.
# This is one part of the list.
# B1: E-Selectin (Homo sapiens), P16581 (protein)
# chain: MIASQFLSALTLVLLIKESGAWSYNTSTEAMTYDEASAYCQQRYTHLVAIQNKEEIEYLNSILSYSPSYYWIGIRKVNNVWVWVGTQKPLTEEAKNWAPGEPNNRQKDEDCVEIYIKREKDVGMWNDERCSKKKLALCYTAACTNTSCSGHGECVETINNYTCKCDPGFSGLKCEQIVNCTALESPEHGSLVCSHPLGNFSYNSSCSISCDRGYLPSSMETMQCMSSGEWSAPIPACNVVECDAVTNPANGFVECFQNPGSFPWNTTCTFDCEEGFELMGAQSLQCTSSGNWDNEKPTCKAVTCRAVRQPQNGSVRCSHSPAGEFTFKSSCNFTCEEGFMLQGPAQVECTTQGQWTQQIPVCEAFQCTALSNPERGYMNCLPSASGSFRYGSSCEFSCEQGFVLKGSKRLQCGPTGEWDNEKPTCEAVRCDAVHQPPKGLVRCAHSPIGEFTYKSSCAFSCEEGFELHGSTQLECTSQGQWTEEVPSCQVVKCSSLAVPGKINMSCSGEPVFGTVCKFACPEGWTLNGSAARTCGATGHWSGLLPTCEAPTESNIPLVAGLSAAGLSLLTLAPFLLWLRKCLRKAKKFVPASSCQSLESDGSYQKPSYIL
# Key:
# Assay in all cases: glycan array binding signal (z-score within array); higher = stronger binding
# Conditions in all cases: glycan notation: IUPAC condensed, linker removed
# Fuc(a1-2)Gal = target: Fuc(a1-2)Gal
# Outline: (§1)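 The binding signal is a Z-score computed within each array. Data were drawn from 3228 arrays in the Consortium for Functional Glycomics database, restricted to those with a known protein sequence. Scores were averaged over arrays of the same protein sequence at different concentrations or buffers, and over linkers, and negative values can be taken as non-binding.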
# Fuc(a1-2)Gal(b1-3)GalNAc = target: Fuc(a1-2)Gal(b1-3)GalNAc
# Outline: as §1
# [1] = target: Fuc(a1-2)Gal(b1-3)GalNAc(b1-3)Gal
# Outline: as §1
# [2] = target: Fuc(a1-2)Gal(b1-3)GalNAc(b1-3)Gal(a1-4)Gal(b1-4)Glc
# Outline: as §1
# [3] = target: Fuc(a1-2)Gal(b1-3)GalNAc(b1-4)[Neu5Ac(a2-3)]Gal(b1-4)Glc
# Outline: as §1
# Fuc(a1-2)Gal(b1-3)GlcNAc = target: Fuc(a1-2)Gal(b1-3)GlcNAc
# Outline: as §1
# [4] = target: Fuc(a1-2)Gal(b1-3)GlcNAc(b1-3)Gal(b1-4)Glc
# Outline: as §1
# [5] = target: Fuc(a1-2)Gal(b1-3)[Fuc(a1-4)]GlcNAc
# Outline: as §1
# Fuc(a1-2)Gal(b1-4)Glc = target: Fuc(a1-2)Gal(b1-4)Glc
# Outline: as §1
# Fuc(a1-2)Gal(b1-4)Glc6S = target: Fuc(a1-2)Gal(b1-4)Glc6S
# Outline: as §1
# Fuc(a1-2)Gal(b1-4)GlcNAc = target: Fuc(a1-2)Gal(b1-4)GlcNAc
# Outline: as §1
# [6] = target: Fuc(a1-2)Gal(b1-4)GlcNAc(b1-3)Gal(b1-4)GlcNAc
# Outline: as §1
# [7] = target: Fuc(a1-2)Gal(b1-4)GlcNAc(b1-3)Gal(b1-4)GlcNAc(b1-3)Gal(b1-4)GlcNAc
# Outline: as §1
# [8] = target: Fuc(a1-2)Gal(b1-4)GlcNAc6S
# Outline: as §1
# [9] = target: Fuc(a1-2)Gal(b1-4)[Fuc(a1-3)]GlcNAc
# Outline: as §1
# [10] = target: Fuc(a1-2)Gal(b1-4)[Fuc(a1-3)]GlcNAc(b1-3)Gal(b1-4)[Fuc(a1-3)]GlcNAc
# Outline: as §1
# [11] = target: Fuc(a1-2)Gal(b1-4)[Fuc(a1-3)]GlcNAc(b1-3)Gal(b1-4)[Fuc(a1-3)]GlcNAc(b1-3)Gal(b1-4)[Fuc(a1-3)]GlcNAc
# Outline: as §1
# Fuc(a1-2)Gal6S(b1-4)Glc = target: Fuc(a1-2)Gal6S(b1-4)Glc
# Outline: as §1
# [12] = target: Fuc(a1-2)Gal6S(b1-4)Glc6S
# Outline: as §1
# [13] = target: Fuc(a1-2)Gal6S(b1-4)GlcNAc
# Outline: as §1
# Fuc(a1-2)GlcNAc = target: Fuc(a1-2)GlcNAc
# Outline: as §1
# Fuc(a1-2)[Gal(a1-3)]Gal = target: Fuc(a1-2)[Gal(a1-3)]Gal
# Outline: as §1
# [14] = target: Fuc(a1-2)[Gal(a1-3)]Gal(b1-3)GlcNAc
# Outline: as §1
# [15] = target: Fuc(a1-2)[Gal(a1-3)]Gal(b1-4)Glc
# Outline: as §1
# [16] = target: Fuc(a1-2)[Gal(a1-3)]Gal(b1-4)GlcNAc
# Outline: as §1
# [17] = target: Fuc(a1-2)[Gal(a1-3)]Gal(b1-4)[Fuc(a1-3)]GlcNAc
# Outline: as §1
# [18] = target: Fuc(a1-2)[Gal(a1-4)]Gal(b1-4)GlcNAc
# Outline: as §1
# [19] = target: Fuc(a1-2)[GalNAc(a1-3)]Gal
# Outline: as §1
# [20] = target: Fuc(a1-2)[GalNAc(a1-3)]Gal(b1-3)GlcNAc
# Outline: as §1
# [21] = target: Fuc(a1-2)[GalNAc(a1-3)]Gal(b1-4)Glc
# Outline: as §1
# [22] = target: Fuc(a1-2)[GalNAc(a1-3)]Gal(b1-4)GlcNAc
# Outline: as §1
# [23] = target: Fuc(a1-2)[GalNAc(a1-3)]Gal(b1-4)[Fuc(a1-3)]GlcNAc
# Outline: as §1
# [24] = target: Fuc(a1-2)[GalNAc(a1-4)]Gal(b1-4)GlcNAc
# Outline: as §1
# [25] = target: Fuc(a1-2)[GalNAc(b1-3)]Gal
# Outline: as §1
# Fuc(a1-3)GlcNAc = target: Fuc(a1-3)GlcNAc
# Outline: as §1
# [26] = target: Fuc(a1-3)[Gal(b1-4)]Glc6S
# Outline: as §1
# [27] = target: Fuc(a1-3)[Gal(b1-4)]GlcNAc
# Outline: as §1
# [28] = target: Fuc(a1-3)[Gal(b1-4)]GlcNAc(b1-2)Man(a1-3)[Fuc(a1-3)[Gal(b1-4)]GlcNAc(b1-2)Man(a1-6)]Man(b1-4)GlcNAc(b1-4)GlcNAc
# Outline: as §1
# [29] = target: Fuc(a1-3)[Gal(b1-4)]GlcNAc(b1-2)Man(a1-6)[Gal(b1-4)GlcNAc(b1-2)Man(a1-3)]Man(b1-4)GlcNAc(b1-4)GlcNAc
# Outline: as §1
# [30] = target: Fuc(a1-3)[Gal(b1-4)]GlcNAc(b1-3)Gal(b1-3)[Fuc(a1-4)]GlcNAc
# Outline: as §1
# [31] = target: Fuc(a1-3)[Gal(b1-4)]GlcNAc(b1-4)Gal(b1-4)[Fuc(a1-3)]GlcNAc
# Outline: as §1
# [32] = target: Fuc(a1-3)[Gal(b1-4)]GlcNAc(b1-4)Gal(b1-4)[Fuc(a1-3)]GlcNAc(b1-4)Gal(b1-4)[Fuc(a1-3)]GlcNAc
# Outline: as §1
# [33] = target: Fuc(a1-3)[Gal(b1-4)]GlcNAc6S
# Outline: as §1
# [34] = target: Fuc(a1-3)[Gal3S(b1-4)]Glc6S
# Outline: as §1
# [35] = target: Fuc(a1-3)[Gal3S(b1-4)]GlcNAc
# Outline: as §1
# [36] = target: Fuc(a1-3)[Gal3S(b1-4)]GlcNAc6S
# Outline: as §1
# [37] = target: Fuc(a1-3)[GalNAc(b1-4)]GlcNAc
# Outline: as §1
# Fuc(a1-4)GlcNAc = target: Fuc(a1-4)GlcNAc
# Outline: as §1
# Fuc(b1-3)GlcNAc = target: Fuc(b1-3)GlcNAc
# Outline: as §1
# Gal(a1-2)Gal = target: Gal(a1-2)Gal
# Outline: as §1
# Gal(a1-3)Gal = target: Gal(a1-3)Gal
# Outline: as §1
# Gal(a1-3)Gal(b1-3)GlcNAc = target: Gal(a1-3)Gal(b1-3)GlcNAc
# Outline: as §1
# Gal(a1-3)Gal(b1-4)Glc = target: Gal(a1-3)Gal(b1-4)Glc
# Outline: as §1
# Gal(a1-3)Gal(b1-4)GlcNAc = target: Gal(a1-3)Gal(b1-4)GlcNAc
# Outline: as §1
# [38] = target: Gal(a1-3)Gal(b1-4)[Fuc(a1-3)]GlcNAc
# Outline: as §1
# Gal(a1-3)GalNAc = target: Gal(a1-3)GalNAc
# Outline: as §1
# [39] = target: Gal(a1-3)[Gal(a1-4)]Gal(b1-4)GlcNAc
# Outline: as §1
# Gal(a1-4)Gal(b1-4)Glc = target: Gal(a1-4)Gal(b1-4)Glc
# Outline: as §1
# Gal(a1-4)Gal(b1-4)GlcNAc = target: Gal(a1-4)Gal(b1-4)GlcNAc
# Outline: as §1
# Gal(a1-4)GlcNAc = target: Gal(a1-4)GlcNAc
# Outline: as §1
binder,measurement,setting,value
B1,glycan array binding signal (z-score),Fuc(a1-2)Gal,-0.039
same,glycan array binding signal (z-score),Fuc(a1-2)Gal(b1-3)GalNAc,-0.163
same,glycan array binding signal (z-score),[1],-0.07
same,glycan array binding signal (z-score),[2],-0.204
same,glycan array binding signal (z-score),[3],-0.098
same,glycan array binding signal (z-score),Fuc(a1-2)Gal(b1-3)GlcNAc,-0.238
same,glycan array binding signal (z-score),[4],-0.218
same,glycan array binding signal (z-score),[5],-0.254
same,glycan array binding signal (z-score),Fuc(a1-2)Gal(b1-4)Glc,-0.199
same,glycan array binding signal (z-score),Fuc(a1-2)Gal(b1-4)Glc6S,0.136
same,glycan array binding signal (z-score),Fuc(a1-2)Gal(b1-4)GlcNAc,-0.111
same,glycan array binding signal (z-score),[6],-0.163
same,glycan array binding signal (z-score),[7],-0.045
same,glycan array binding signal (z-score),[8],0.202
same,glycan array binding signal (z-score),[9],-0.255
same,glycan array binding signal (z-score),[10],-0.198
same,glycan array binding signal (z-score),[11],-0.095
same,glycan array binding signal (z-score),Fuc(a1-2)Gal6S(b1-4)Glc,-0.005
same,glycan array binding signal (z-score),[12],0.543
same,glycan array binding signal (z-score),[13],-0.041
same,glycan array binding signal (z-score),Fuc(a1-2)GlcNAc,-0.117
same,glycan array binding signal (z-score),Fuc(a1-2)[Gal(a1-3)]Gal,-0.181
same,glycan array binding signal (z-score),[14],-0.227
same,glycan array binding signal (z-score),[15],-0.226
same,glycan array binding signal (z-score),[16],-0.135
same,glycan array binding signal (z-score),[17],-0.211
same,glycan array binding signal (z-score),[18],-0.065
same,glycan array binding signal (z-score),[19],-0.199
same,glycan array binding signal (z-score),[20],-0.247
same,glycan array binding signal (z-score),[21],-0.205
same,glycan array binding signal (z-score),[22],-0.234
same,glycan array binding signal (z-score),[23],-0.166
same,glycan array binding signal (z-score),[24],-0.146
same,glycan array binding signal (z-score),[25],-0.145
same,glycan array binding signal (z-score),Fuc(a1-3)GlcNAc,-0.144
same,glycan array binding signal (z-score),[26],0.093
same,glycan array binding signal (z-score),[27],-0.178
same,glycan array binding signal (z-score),[28],-0.188
same,glycan array binding signal (z-score),[29],-0.419
same,glycan array binding signal (z-score),[30],-0.144
same,glycan array binding signal (z-score),[31],-0.096
same,glycan array binding signal (z-score),[32],-0.267
same,glycan array binding signal (z-score),[33],0.094
same,glycan array binding signal (z-score),[34],0.501
same,glycan array binding signal (z-score),[35],-0.022
same,glycan array binding signal (z-score),[36],0.687
same,glycan array binding signal (z-score),[37],-0.24
same,glycan array binding signal (z-score),Fuc(a1-4)GlcNAc,-0.173
same,glycan array binding signal (z-score),Fuc(b1-3)GlcNAc,-0.173
same,glycan array binding signal (z-score),Gal(a1-2)Gal,-0.263
same,glycan array binding signal (z-score),Gal(a1-3)Gal,0.359
same,glycan array binding signal (z-score),Gal(a1-3)Gal(b1-3)GlcNAc,-0.238
same,glycan array binding signal (z-score),Gal(a1-3)Gal(b1-4)Glc,-0.247
same,glycan array binding signal (z-score),Gal(a1-3)Gal(b1-4)GlcNAc,-0.209
same,glycan array binding signal (z-score),[38],-0.185
same,glycan array binding signal (z-score),Gal(a1-3)GalNAc,-0.172
same,glycan array binding signal (z-score),[39],-0.265
same,glycan array binding signal (z-score),Gal(a1-4)Gal(b1-4)Glc,-0.061
same,glycan array binding signal (z-score),Gal(a1-4)Gal(b1-4)GlcNAc,-0.114
same,glycan array binding signal (z-score),Gal(a1-4)GlcNAc,-0.127
